Laboratory results from PubChem BioAssay.
Inconclusive results, whose numbers are uncertain, are shown with a selection of clear calls. Calls of active or inactive are those of the source.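 How the source made its calls, unless noted: active means thallium flux slope more than 3 SD above or below the plate's solvent-only control mean, mostly below; inconclusive means the two repeat wells disagreed; inactive means no significant shift from solvent-only controls.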

Assays:
[1] = biological target: Solute carrier family 12 member 5 (Homo sapiens) (UniProt Q9H2X9); experiment: retest of KCC2 transport modulation, ouabain-free – cell-based, HEK293 KCC2, thallium flux, FluoZin2, secondary assay 2, confirmation (AID 1715); conditions: HEK293-KCC2, thallium flux FluoZin2 fluorescence; at 10 µM; actives lie on both sides; F/F0 rise rate, 10–20 s post-thallium;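 further: raw slope with 0.1% DMSO as baseline and bumetanide as block control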
UniProt Q9H2X9, sequence (Q9H2X9 whole entry, looked up): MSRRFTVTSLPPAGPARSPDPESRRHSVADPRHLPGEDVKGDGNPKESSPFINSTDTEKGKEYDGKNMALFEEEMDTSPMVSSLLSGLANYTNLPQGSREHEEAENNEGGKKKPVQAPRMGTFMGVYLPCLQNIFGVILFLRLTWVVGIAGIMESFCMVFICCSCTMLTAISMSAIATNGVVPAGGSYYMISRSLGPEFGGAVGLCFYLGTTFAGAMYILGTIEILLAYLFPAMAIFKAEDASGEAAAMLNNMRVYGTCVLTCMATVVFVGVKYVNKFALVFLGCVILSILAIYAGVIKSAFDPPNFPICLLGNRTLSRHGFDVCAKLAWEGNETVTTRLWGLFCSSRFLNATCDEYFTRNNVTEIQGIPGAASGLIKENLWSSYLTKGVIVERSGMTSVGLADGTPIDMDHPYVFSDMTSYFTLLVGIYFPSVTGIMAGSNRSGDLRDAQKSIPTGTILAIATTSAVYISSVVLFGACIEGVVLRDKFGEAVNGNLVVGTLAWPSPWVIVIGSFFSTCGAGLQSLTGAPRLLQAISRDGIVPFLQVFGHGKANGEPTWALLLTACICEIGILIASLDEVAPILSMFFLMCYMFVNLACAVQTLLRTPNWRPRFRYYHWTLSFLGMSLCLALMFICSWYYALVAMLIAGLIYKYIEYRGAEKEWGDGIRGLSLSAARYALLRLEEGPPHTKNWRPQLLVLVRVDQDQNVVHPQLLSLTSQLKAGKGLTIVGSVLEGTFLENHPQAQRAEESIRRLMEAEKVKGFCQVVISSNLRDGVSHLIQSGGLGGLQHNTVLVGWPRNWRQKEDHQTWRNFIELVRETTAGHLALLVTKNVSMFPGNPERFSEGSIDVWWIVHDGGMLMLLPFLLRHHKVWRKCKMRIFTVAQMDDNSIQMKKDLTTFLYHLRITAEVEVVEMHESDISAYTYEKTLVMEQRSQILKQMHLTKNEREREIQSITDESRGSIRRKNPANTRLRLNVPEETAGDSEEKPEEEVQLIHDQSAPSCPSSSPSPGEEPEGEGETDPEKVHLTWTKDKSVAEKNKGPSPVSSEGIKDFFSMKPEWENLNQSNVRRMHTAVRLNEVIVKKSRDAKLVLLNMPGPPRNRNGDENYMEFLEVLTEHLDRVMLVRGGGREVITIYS

[2] = biological target: Solute carrier family 12 member 5 (Homo sapiens) (UniProt Q9H2X9); experiment: modulation of KCC2 thallium flux in HEK cells – cell-based, ouabain, retest, confirmation (AID 1717;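 active means thallium flux slope beyond 3 SD from same-plate DMSO control mean in most replicates, usually higher, sometimes lower; inconclusive means repeat tests gave conflicting results; inactive means no significant difference from controls in most replicates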;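 further: slope of initial-normalized fluorescence between seconds 10 and 20 after thallium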); conditions: HEK293-KCC2, thallium flux FluoZin2 fluorescence, at 10 µM, bidirectional: low = inhibitor, high = activator
[3] = native HEK Tl+ uptake effects, second counter-screen – HEK cells, counterscreen 2, counter-screen for KCC2 modulator project, confirmation (AID 1718;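 active means thallium flux slope above the same plate's solvent-control mean plus 3 SD in both duplicate wells; inconclusive means duplicate wells that disagreed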;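 further: run without ouabain in cells lacking the KCC2 cotransporter; slope of fluorescence scaled to its starting value between 10 and 20 s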); conditions: HEK293 parental, thallium flux FluoZin-2 fluorescence slope; at 10 µM
Method in brief: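 Assay system – untransfected HEK cells, thallium influx assay · Buffer or medium – HBSS with 20 mM HEPES for dye loading · Doses – single 10 µM final compound dose, 0.1% DMSO · Times – 37 °C overnight growth, 48 min FluoZin2-AM loading · Detection – FluoZin-2 fluorescence kinetics · Benchmarks – bumetanide 2 mM as positive control · Repeats – Per-replicate slope values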

Row | SMILES | normalized thallium flux [1] | raw Tl+ flux slope (below DMSO = inhibition, above = activation) [2] | thallium flux slope [3]
1 | O=C(Cn1c(=O)sc2ccccc21)Nc1ccccc1 | inactive: 0.0331 | inactive: 0.0196 | –
2 | C=CCn1c(O)c(N=NC(=S)Nc2ccc(OC)c(Cl)c2)c2ccccc21 | inactive: 0.0349 | active: 0.0282 | –
3 | Cc1ccc(-c2n[nH]c(=S)c3ccccc23)cc1 | inactive: 0.0295 | inconclusive: 0.0267 | –
4 | S=C(N/N=C/c1cccs1)NC1CC2CCC1C2 (centres undefined) | inactive: 0.0381 | inconclusive: 0.0312 | –
5 | Cc1nc(NC(=O)c2ccco2)sc1C(=O)Nc1ccc(Br)cc1 | inconclusive: 0.0268 | inactive: 0.0173 | –
6 | Clc1ccc2nc(C3CCN(Cc4nnnn4C4CCCCC4)CC3)[nH]c2c1 | inactive: 0.0277 | inconclusive: 0.0164 | –
7 | Oc1cc2ccccc2cc1-c1n[nH]c(=S)n1Cc1ccco1 | inactive: 0.0298 | inconclusive: 0.027 | inactive: 0.00978
8 | CCOC(=O)c1ccc(NC(=O)COC(=O)Cc2csc(-c3ccccc3)n2)cc1 | inconclusive: 0.028 | active: 0.0164 | –
9 | CCOC(=O)n1c(O)c(N=NC(N)=S)c2cc(C)ccc21 | inconclusive: 0.0363 | active: 0.0311 | –
10 | O=C(NC(=S)Nc1ccccn1)c1cncc(Br)c1 | inactive: 0.033 | inconclusive: 0.0243 | –
11 | C/C(=N\NC(=S)Nc1c(C)cccc1C)c1cc2ccccc2o1 | inactive: 0.0309 | inconclusive: 0.0244 | –
12 | Nc1ccc2c(c1)ncn2CCCn1cnc2cc(N)ccc21 | inconclusive: 0.0271 | inactive: 0.0185 | –
13 | CC(/C=N/n1c(-c2ccccn2)n[nH]c1=S)=C\c1ccccc1 | inactive: 0.0301 | inconclusive: 0.0294 | inactive: 0.0107
14 | O=c1cc(-c2ccccc2)[nH]n1-c1nc2ccccc2s1 | inconclusive: 0.0376 | active: 0.0402 | –
15 | S=c1[nH]c2cc3ccccc3cc2[nH]1 | inconclusive: 0.0266 | inactive: 0.0156 | inconclusive: 0.0123
16 | CS(=O)(=O)N(CCc1ccccc1)CC(=O)N1CCN(Cc2ccccc2)CC1 | inactive: 0.0333 | inconclusive: 0.016 | –
17 | Cc1ccc(C(=O)/C=C/Nc2ccccc2C(N)=O)cc1 | inconclusive: 0.0241 | inactive: 0.0145 | inactive: 0.00995
18 | CCOc1ccc2nc(SC3CC(=O)N(c4ccc(OC)cc4OC)C3=O)sc2c1 (centres undefined) | inactive: 0.0347 | inconclusive: 0.0245 | –
19 | Oc1ccc(-c2nc(-c3ccc(O)c(O)c3)cs2)cc1 | inconclusive: 0.0261 | active: 0.014 | –
20 | O=C(NNC1=C(C(=O)C(F)(F)F)CCC1)c1ccc(Br)cc1 | inactive: 0.0311 | inconclusive: 0.0304 | active: 0.0122
21 | O=[N+]([O-])c1cc(S(=O)(=O)N2CCCC2)ccc1N/N=C1/CCCc2ccccc21 | inactive: 0.0323 | inactive: 0.019 | inconclusive: 0.0124
22 | O=C(Cc1ccc(-n2cccc2)cc1)NC1CCCCCC1 | inconclusive: 0.0267 | inactive: 0.0157 | inactive: 0.0103

Row | SMILES | normalized thallium flux [1] | raw Tl+ flux slope (below DMSO = inhibition, above = activation) [2] | thallium flux slope [3]
23 | CC(C)c1onc(C(=O)NCCc2ccccc2)c1[N+](=O)[O-] | active: 0.0246 | inconclusive: 0.0166 | –
24 | Cc1cc(Br)ccc1OCC(=O)NNC(=O)C(=O)Nc1ccccc1 | inconclusive: 0.0592 | active: 0.075 | –
25 | O=C(NC(=S)N1CCN(C(c2ccccc2)c2ccccc2)CC1)c1ccc(S(=O)(=O)N2CCOCC2)cc1 | inactive: 0.0323 | inconclusive: 0.028 | inconclusive: 0.0146
26 | Cc1nn(-c2ccccc2)c2nc(C(Cl)(Cl)Cl)[nH]c(=O)c12 | inconclusive: 0.043 | active: 0.0654 | –
27 | O=C(Cn1cnc2c(nnn2Cc2ccccc2)c1=O)N1CCCc2ccccc21 | active: 0.0216 | inconclusive: 0.0149 | –
28 | O=C(Nc1ccccc1Cl)N1CCN(c2ccc3nnc(-c4ccc(F)cc4)n3n2)CC1 | inactive: 0.0301 | inactive: 0.0189 | –
29 | CC(C)c1nc2sc3c(=O)[nH]c(=S)[nH]c3c2c2c1CCC2 | inconclusive: 0.0244 | active: 0.0094 | inconclusive: 0.00813
30 | O=[N+]([O-])c1ccc2nc(/C=C/c3ccc(Cl)cc3)[nH]c2c1 | inactive: 0.0293 | inconclusive: 0.0155 | inactive: 0.00989
31 | CC(C)c1ccc(-c2csc(NC(=O)c3cccs3)c2C(=O)O)cc1 | active: 0.0273 | inconclusive: 0.0356 | inconclusive: 0.0112
32 | c1ccc(-n2c(-c3ccncc3)nnc2-c2ccco2)cc1 | inactive: 0.0294 | inactive: 0.0159 | –
33 | O=C(NC(=S)N1CCN(c2nc(-c3ccccc3)cs2)CC1)c1cccnc1 | inconclusive: 0.0398 | active: 0.0704 | –
34 | Cc1cccc(Nc2nnc(SCC(=O)Nc3ncc(C(F)(F)F)cc3Cl)s2)c1C | active: 0.0241 | inconclusive: 0.0159 | –
35 | O=C(CN1C(=O)NC2(CCCCCC2)C1=O)N1CCC(Cc2ccccc2)CC1 | inconclusive: 0.027 | active: 0.0168 | inactive: 0.0105
36 | COc1cc(OC)c(C2=NOC(C(=O)NCCc3ccccc3)C2)cc1Cl (centres undefined) | active: 0.0259 | inconclusive: 0.0181 | inactive: 0.00984
37 | Cc1noc(C)c1CN1C(=O)NC2(CCc3ccccc3C2)C1=O (centres undefined) | inactive: 0.0336 | inactive: 0.0217 | –
38 | CCOC(=O)C1=C(N)OC2=C(C(=O)CCC2)C1c1sccc1C (centres undefined) | inconclusive: 0.0289 | inactive: 0.0172 | –
39 | Cn1c(SCC(=O)NCCN2C(=O)CSC2=O)nc2ccccc2c1=O | inconclusive: 0.0358 | inactive: 0.0198 | active: 0.0165
40 | N#CC1=C(N)NC(SCc2ccccc2)=C(C#N)C12CCCCC2 | inconclusive: 0.0264 | inactive: 0.0171 | –
41 | CCn1c(=O)cc(OCC(=O)N2CCN(c3cccc(C(F)(F)F)c3)CC2)c2ccccc21 | inactive: 0.0283 | inconclusive: 0.0245 | inactive: 0.0103
42 | COc1ccccc1C(=O)NC1CCN(C(=S)NCCc2ccccc2)CC1 | active: 0.0249 | inconclusive: 0.017 | –
43 | FC(F)(F)c1ccc(Cl)c(NC(=S)N/N=C/c2ccccc2C(F)(F)F)c1 | inconclusive: 0.0369 | inconclusive: 0.0244 | active: 0.0131
44 | O=C(NNC(=S)Nc1cccc(C(F)(F)F)c1)c1ccc(Cl)cc1Cl | inactive: 0.0325 | inconclusive: 0.028 | –

Row | SMILES | normalized thallium flux [1] | raw Tl+ flux slope (below DMSO = inhibition, above = activation) [2] | thallium flux slope [3]
45 | Cc1ccc(-n2cccc2/C=C2\C(=N)N3N=C(C(C)C)SC3=NC2=O)cc1 | inconclusive: 0.036 | active: 0.0312 | –
46 | Cc1cc(Cl)ccc1Oc1ccccc1C(=O)CC#N | inconclusive: 0.0258 | inconclusive: 0.0182 | inactive: 0.00929
47 | O=C(CCCc1c[nH]c2ccccc12)NCc1ccc2c(c1)OCO2 | inactive: 0.0278 | inconclusive: 0.0175 | inactive: 0.00977
48 | O=C(NNC(=S)NC(=O)c1ccco1)c1ccc(F)cc1 | inconclusive: 0.0343 | active: 0.0432 | active: 0.0186
49 | O=C(NNC1=Nc2ccccc2SC1)c1ccc(Cl)cc1 | inactive: 0.0311 | inactive: 0.0183 | inconclusive: 0.0122
50 | Fc1ccc(-n2ncc3c(SCc4cccnc4)ncnc32)cc1 | inconclusive: 0.0359 | – | active: 0.0232
51 | CCOC(=O)/C(C#N)=C1/C=C(C)NC(c2ccccc2O)=N1 | active: 0.0222 | – | inconclusive: 0.00816
52 | COC1=C/C(=C/c2c(N)n3nc(-c4ccc(C)cc4)sc3nc2=O)C=CC1=O | inconclusive: 0.0278 | inconclusive: 0.0318 | active: 0.024
53 | CC(NCc1ccc(F)cc1)C(=O)Nc1cc(S(=O)(=O)N2CCCCC2)ccc1Cl (centres undefined) | inconclusive: 0.0289 | active: 0.0158 | inactive: 0.0103
54 | COc1ccc(O)c(C(=O)CC(=O)c2ccccc2C)c1 | inconclusive: 0.0373 | – | active: 0.0216
55 | CN1CCN(C(=S)NC(=O)c2ccc(-c3ccccc3)cc2)CC1 | inconclusive: 0.0404 | – | active: 0.0383
56 | COc1ccc(C(=O)NNC(=S)NC(=O)C(C)(C)C)cc1 | inconclusive: 0.0402 | – | active: 0.0143
57 | COc1ccc2c(c1)O[C@@H](c1cccc(C(F)(F)F)c1)[C@H](O)C2=O | inactive: 0.0312 | inconclusive: 0.0227 | inconclusive: 0.011
58 | CCOc1cccc(/C=N/N2C(=O)CSC2=S)c1O | inactive: 0.0319 | – | active: 0.0167
59 | Cn1c(=O)c([N+](=O)[O-])c(NCc2ccccc2Cl)c2ccccc21 | inconclusive: 0.0277 | inconclusive: 0.0173 | inconclusive: 0.0094
60 | Cc1ccc(/C=N/n2c(C3CCCCC3)n[nH]c2=S)s1 | inactive: 0.0328 | inactive: 0.027 | inconclusive: 0.0112
61 | Cc1ccc(Cl)cc1N1CCN(C(=O)Cc2csc(Nc3nc(=S)[nH]c4ccccc34)n2)CC1 | inconclusive: 0.0387 | – | active: 0.014
62 | O=C(NC(=S)Nc1ccc(Oc2ccccc2)cc1)c1ccc(Cl)cc1 | inconclusive: 0.0343 | active: 0.0278 | active: 0.0137
63 | CCC(c1nnnn1Cc1cccs1)N1CCN(c2nc3ccccc3s2)CC1 (centres undefined) | inconclusive: 0.0302 | – | inactive: 0.0113
64 | CC(/C=C/c1ccco1)=N\NC(=O)c1cccc(Cl)c1 | inconclusive: 0.0381 | – | active: 0.0256
